Reference: paper PMC8980021 (2022)

Target: ALPN-202 (davoceticept), variant CD80 IgV domain Fc fusion (human, UniProt P33681 69-175, E35D | M47L | V68M)
Assay: SPR

koff: 0.00052 s⁻¹
B1: recombinant monomeric human CTLA-4 (receptor)
chain: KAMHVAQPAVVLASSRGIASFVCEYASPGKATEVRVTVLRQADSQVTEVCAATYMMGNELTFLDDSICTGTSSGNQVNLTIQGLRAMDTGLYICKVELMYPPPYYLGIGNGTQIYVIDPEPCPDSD
